About 340 (0.77%) of roughly 44,000 compounds were called active. Not shown: some 5% with an inconclusive outcome. Calls come from the whole dose curve; as a rule, active = well fitted inhibition curve with a large enough effect; inconclusive = small, poorly fitted or top-dose-only effect; inactive = flat fitted curve, though single readings scatter. The list shows a part of the results.
Assay: Acumen qHTS Assay for Inhibitors of the mTORC1 Signaling Pathway in MEF (Tsc2-/-, p53-/-) Cells: Sytravon;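 note: plate controls were DMSO for no effect and rapamycin for full effect; nearly all actives have a fitted effect of over 50% in size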
Details: phospho-rpS6 immunofluorescence/PI, 24 h; series mostly up to 38.3 µM; activity change, negative = inhibition: at the top concentration
Summary of the method: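 Tsc2-/-, p53-/- mouse embryonic fibroblasts (empty-vector line) exposed to compound 24 hrs at 37 C, fixed, immunostained for phospho-rpS6 and counterstained with propidium iodide. Acumen laser scanning gives % positive cells from Alexa 488/PI ratio, thresholded using 7.5 nM rapamycin; PI count gives viability.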

Activity change, negative = inhibition, inactive:
CCCSCCCNC(=O)C1CCN(c2nc3ccccc3nc2C(F)(F)F)CC1 -3.33%
CCCCn1cnc2cc(NCc3ccccc3Cl)ccc21 -23.4%
Cc1cccc(/C=C/c2onc(C)c2S(=O)(=O)N2CCC(C(=O)N3CCCCC3)CC2)c1 -1.54%
COc1ccc(-c2[nH]c(-c3ccc(Cl)cc3)nc2SCC(=O)NCC2CCCO2)cc1 (stereo not given) -0.313%
Cc1ccc(NC(=O)C(=O)NCC(c2cccnc2)N2CCN(Cc3ccccc3)CC2)cc1F (stereo not given) -3.17%
O=C(Cc1cccs1)NC1CC(=O)N(c2ccc(F)cc2)C1 (stereo not given) 0.388%
Cc1oc(-c2ccc(C(=O)NCc3ccccc3)cc2)nc1CN1CCc2ccccc21 9.98%
COc1ccc(-c2csc3ncnc(Nc4cccc(OC)c4)c23)cc1 0%
CSc1cccc(NC(=O)Nc2ccccc2OCc2cc(=O)n3cc(C)ccc3n2)c1 9%
CCC(=O)N1CCc2cc(Br)cc(S(=O)(=O)CCC(=O)N3CCN(c4cccc(C)c4)C(C)C3)c21 (stereo not given) -10.9%
CCc1ccc(S(=O)(=O)Nc2ccc3c(c2)n(C)c(=O)c(=O)n3C)cc1 -12.8%
COc1ccc(C(=O)Nc2ccc3nc(SCC(=O)N4CCc5ccccc54)sc3c2)cc1 0%
Cc1ccc2c(c1)C(c1ccc(F)cc1)N(C(=O)c1ccc(S(=O)(=O)N3CCCCC3)cc1)CC(=O)N2 (stereo not given) 7.35%
O=C(NCc1ccc(Cl)cc1)NCc1noc2ccccc12 -2.99%
COc1ccc(NC(=O)CCNS(=O)(=O)c2ccc3c(c2)CCCC(=O)N3)cc1Cl -7.19%
COC(=O)c1ccccc1NC(=O)C1=CC(c2cccs2)=NS(=O)(=O)N1C -8.84%
COc1ccc(-n2nc3cc(C)c(NC(=O)c4ccc(-c5ccc(Cl)cc5)o4)cc3n2)cc1 -2.57%
Cc1ccc(S(=O)(=O)c2nnn(-c3ccc(F)c(Cl)c3)c2N)cc1 -2.54%
COc1ccc(OCc2ccc(-c3nc(C#N)c(NC(C)c4ccccc4)o3)o2)cc1 (stereo not given) -7.91%
Cc1nn(CC(=O)Nc2ccc(OC(F)(F)F)cc2)c(=O)c2c(C)n(-c3ccc(Cl)cc3)nc12 -1.26%
CCOc1ccc2nc(N3CCCC(C(=O)NCCc4ccc(OCC)c(OCC)c4)C3)sc2c1 (stereo not given) -5.72%
COc1ccc(CCNC(=O)c2nc(-c3ccc(Cl)cc3)n3c2CCCCC3)c(OC)c1 -8.39%
CCc1cccc(-n2c(=O)c3cccnc3n2CC(=O)Nc2c(C)cc(C)cc2C)c1 0%
COc1ccc(N(Cc2cc3cccc(C)c3[nH]c2=O)C(=O)c2cccc(Cl)c2)cc1 -1.13%
COc1ccc2nc(N(Cc3cccnc3)C(=O)Cc3ccccc3)sc2c1 -2.16%
CC(=O)N1CCc2cc(S(=O)(=O)C(C)CC(=O)Nc3ccc(Br)c(C)c3)ccc21 (stereo not given) -6.96%
CN(C)S(=O)(=O)c1ccc(C(=O)NCCSc2c(-c3ccccc3)[nH]c3ccccc23)cc1 -10%
CC(=O)Nc1ccc(S(=O)(=O)NC2=NCN(CCO)CN2)cc1 0.0321%
Fc1cccc(-c2nnn3c2nc(NC2CCCCC2)c2ccccc23)c1 -6.54%
COc1ccc(NC(=O)C2=C(C)Nc3ncnn3C2c2cccn2C)cc1 (stereo not given) -1.74%
COc1ccccc1CNC(=O)CN1C(=O)COc2ccc(S(=O)(=O)NC3CCCC3)cc21 -6.14%
O=C(C1CCN(S(=O)(=O)Cc2ccccc2)CC1)N1CCN(c2cccc(C(F)(F)F)c2)CC1 4.43%
CC1CCN(CC2CCN(C(=O)Nc3ccc(Br)cc3F)CC2)CC1 0.0748%
Cc1cccc(-n2c(CNC(=O)c3cccc(F)c3)nnc2SCC(=O)Nc2ccccc2F)c1 0.919%
Cc1ccc(Cl)cc1-n1ncc2c(N3CCN(Cc4ccccc4)CC3)ncnc21 -21.6%
CCOC(=O)c1c(NC(=O)c2ccc(S(=O)(=O)N(C)C3CCCCC3)cc2)sc2c1CCN(C(C)C)C2 -9.7%
Cc1noc(C)c1S(=O)(=O)N(CC(=O)NCCc1ccccc1)c1ccc(C(C)C)cc1 -2.01%
CCOCCCN1C(=O)c2ccccc2CC1(C)C(=O)NC1CCCCC1 (stereo not given) -2.2%
COC(=O)c1ccccc1NC(=O)c1sc2nc(C)cc(C)c2c1NC(=O)c1ccccc1OC -1.41%
COc1ccc(NC(=O)CSc2nc3c(oc4ccccc43)c(=O)n2Cc2ccco2)cc1Cl -5.01%
CC1CCN(S(=O)(=O)c2nnc(NC(=O)c3cccc(Cl)c3)s2)CC1 0%
Cc1ccc(CCNc2ncnc3onc(-c4ccc(Cl)cc4)c23)cc1 1.78%
COc1ccc(CNC(=O)CN2C(=O)CSc3ccc(S(=O)(=O)N4CCC(C)CC4)cc32)cc1 2.11%
COc1ccc(/C=C/C(=O)Nc2nc(-c3cccs3)ns2)cc1 -5.93%
COc1ccc(-c2nc(S(=O)(=O)c3ccc(Cl)cc3)c(NCc3ccccc3)o2)cc1 -1.44%
COc1ccc(CNC(=O)C2CCC(CNS(=O)(=O)c3ccc4c(c3)CCCC(=O)N4)CC2)cc1 (stereo not given) -1.74%
Cc1ccc(-c2cn3c(n2)sc2cc(C(=O)NCCC4=CCCCC4)ccc23)cc1 -1.97%
COc1cc(-c2nc(Cn3nnc(C(=O)Nc4cccc(Cl)c4)c3C)c(C)o2)cc(OC)c1OC -6.34%
CCOC(=O)CSc1nc2c(sc3ccccc32)c(=O)n1CCO -0.134%
COc1ccc(OCC(O)Cn2c(NCCO)nc3c2c(=O)n(C)c(=O)n3C)cc1 (stereo not given) 0.272%
Cc1nn(CC(=O)N2CCN(c3ccc(Cl)cc3)CC2)c(=O)c2cccn12 -7.15%
Cc1cc(C)c(NC(=O)C2CCN(c3nn4c(=O)cc(C)nc4s3)CC2)c(C)c1 0.649%
COc1ccc(NCc2cccn2-c2nnc(N3CCCCC3)s2)cc1OC 5.42%
Cc1ccc2nc(COc3ccccc3NC(=O)c3ccc(F)cc3)cc(=O)n2c1 -11.6%
O=C(CSc1nc2c([nH]c3ccccc32)c(=O)n1-c1ccc(Cl)cc1)c1ccccc1 -7.71%
Cc1cc(C)cc(NC(=O)Cn2cc(C(=O)C3CCCCC3)c3ccccc32)c1 -25.3%
Cc1ccc2c(=O)cc(C(=O)Nc3ccc(S(=O)(=O)Nc4ncccn4)cc3)oc2c1C 6.17%
Cc1ccc(-n2c(=O)c3c(c4cc(C)ccc4n3C)n(CC(=O)N3CCCC3)c2=O)cc1 -2.32%
O=C(CSC1=Nc2ccccc2N=C(c2ccc(F)cc2)C1)Nc1ccccc1 -7.6%
COc1ccccc1CNC(=O)c1cn(C)c2ccc(S(=O)(=O)N(C)C3CCCCC3)cc2c1=O 0.557%
CC(C)(C)C1CCc2oc3ccc(NS(=O)(=O)c4ccc(C(=O)O)cc4)cc3c2C1 (stereo not given) 1.99%
COc1ccc(Cn2c(SCC(=O)N(C)Cc3ccccc3)nc3ccccc32)cc1 0%
Cc1ccc(NC(=O)Cn2c(=O)nc(-c3ccccc3)c3ccccc32)cc1F 2.49%
COc1ccc(CCNc2ncnc3c2cnn3-c2cc(Cl)ccc2C)cc1 -12.6%
Cc1cccc(-c2noc(-c3ccc(N4CCOCC4)c([N+](=O)[O-])c3)n2)c1 -12%
CC1CCN(S(=O)(=O)c2ccc3c(ccc(=O)n3CC(=O)Nc3cccc(F)c3)c2)CC1 -2.01%
O=C(Nc1cnc(N2CCN(c3ccccc3)CC2)c(C(=O)O)c1)c1cccs1 -0.247%
Cc1ccc(NC(=O)c2cc(S(=O)(=O)NCCc3ccc(Cl)cc3)ccc2F)cc1 -0.753%
CC1CCCCN1C(=O)c1cc(-c2ccc(Br)cc2)on1 (stereo not given) -3.68%
COc1ccc(C2N=C(N)Nc3nc4ccccc4n32)cc1 (stereo not given) -6.73%
CCOC(=O)C1CCN(c2nc3c(S(=O)(=O)c4ccc(C)c(C)c4)nnn3c3ccc(Cl)cc23)CC1 -7.09%
CC1=C(C(=O)N2CCN(c3cccc(Cl)c3)CC2)C2(CCCCC2)OC1=O 8.22%
CCN(C(=O)c1cc2c(=O)oc3ccc(C)cc3c2s1)c1ccccc1C -9.43%
CCN(CC)S(=O)(=O)c1ccc2nc(NC(=O)c3cncc(Br)c3)sc2c1 0%
Cc1cccn2c(=O)c(C(=O)NC(C)c3ccccc3)cnc12 (stereo not given) -0.0959%
Cc1ccc(OCc2nc(-c3ccc(C(=O)NCc4ccc(OC(C)C)cc4)cc3)oc2C)cc1 -0.68%
CCOc1ccc(N(C)S(=O)(=O)c2ccc3[nH]cc(C(=O)NCc4ccccc4)c(=O)c3c2)cc1 -9.11%
Cc1nc2scc(C)n2c(=O)c1S(=O)(=O)NCCc1ccccc1 -2.48%
Cc1cc(C)cc(N2C(=O)N(Cc3cccc(F)c3)c3ccccc3S2(=O)=O)c1 -5.92%
Cc1ccc(C(=O)c2cn(Cc3ccc(Cl)cc3)c3nc(C)ccc3c2=O)cc1 -3.51%
COc1ccc(N2CCN(C(=O)CSc3n[nH]c(-c4ccccc4Cl)n3)CC2)cc1 -28.1%
COc1ccc(Nc2oc(-c3ccc(COc4ccccc4C)o3)nc2C#N)cc1 -14.5%
Cc1ccc(C)c(CN2C(=O)c3ccccc3S(=O)(=O)c3ccc(C(=O)NCCC4=CCCCC4)cc32)c1 -0.796%
Cc1cc(C)c(NC(=O)C(C)n2nnc3sc4c(c3c2=O)CCCC4)c(C)c1 (stereo not given) -3.38%
Cc1cc(NC(=O)CN2C(=O)c3cccnc3Sc3ccccc32)ccc1Br 0.239%
COc1ccc(OC)c2sc(N(Cc3cccnc3)C(=O)c3ccco3)nc12 0.485%
Cc1ccc(CNC(=O)c2cc(-c3ccc(Cl)cc3)on2)cc1 0.0775%
CCN1CCN(c2ncc3c(n2)CC(c2ccccc2O)CC3=O)CC1 (stereo not given) -10.1%
Cc1ccc2oc(=O)c(S(=O)(=O)c3ccc(C(C)(C)C)cc3)cc2c1 -5.76%
CN(C)c1ccc(CNC(=O)CN2CCSc3ccc(S(=O)(=O)N(C)C)cc32)cc1 -0.596%
Cc1ccc(NC(=O)C2CCN(c3nn4cc(-c5ccc(C)cc5)nc4s3)CC2)cc1 4.45%
CCCCCn1c(=O)[nH]c2cc(C(=O)N3CCN(c4cccc(C(F)(F)F)c4)CC3)ccc2c1=O -8.77%
Cc1ccc(CNC(=O)CNS(=O)(=O)c2cccs2)cc1 3.37%
CCN(c1ccccc1)S(=O)(=O)c1nnc(NC(=O)COc2cccc(C)c2)s1 0%
COc1ccc(CNC(=O)c2oc3c(c2C)-c2nn(Cc4ccc(Cl)cc4)cc2CC3)cc1 6.89%

Source: PubChem BioAssay AID493208 (National Center for Advancing Translational Sciences (NCATS), 2011)
